{"source": "paper PMC4336329", "about": "(PLoS ONE, 2015)", "note": "The campaign covered roughly 310,000 compounds. About 2,200 (0.71%) showed an effect of 50% or more. Effects have a minus sign here. Some of the results follow."}
{"target": "human ether-à-go-go-related gene (hERG) potassium channel (human, UniProt Q12809)", "sequence (Q12809 whole entry, looked up)": "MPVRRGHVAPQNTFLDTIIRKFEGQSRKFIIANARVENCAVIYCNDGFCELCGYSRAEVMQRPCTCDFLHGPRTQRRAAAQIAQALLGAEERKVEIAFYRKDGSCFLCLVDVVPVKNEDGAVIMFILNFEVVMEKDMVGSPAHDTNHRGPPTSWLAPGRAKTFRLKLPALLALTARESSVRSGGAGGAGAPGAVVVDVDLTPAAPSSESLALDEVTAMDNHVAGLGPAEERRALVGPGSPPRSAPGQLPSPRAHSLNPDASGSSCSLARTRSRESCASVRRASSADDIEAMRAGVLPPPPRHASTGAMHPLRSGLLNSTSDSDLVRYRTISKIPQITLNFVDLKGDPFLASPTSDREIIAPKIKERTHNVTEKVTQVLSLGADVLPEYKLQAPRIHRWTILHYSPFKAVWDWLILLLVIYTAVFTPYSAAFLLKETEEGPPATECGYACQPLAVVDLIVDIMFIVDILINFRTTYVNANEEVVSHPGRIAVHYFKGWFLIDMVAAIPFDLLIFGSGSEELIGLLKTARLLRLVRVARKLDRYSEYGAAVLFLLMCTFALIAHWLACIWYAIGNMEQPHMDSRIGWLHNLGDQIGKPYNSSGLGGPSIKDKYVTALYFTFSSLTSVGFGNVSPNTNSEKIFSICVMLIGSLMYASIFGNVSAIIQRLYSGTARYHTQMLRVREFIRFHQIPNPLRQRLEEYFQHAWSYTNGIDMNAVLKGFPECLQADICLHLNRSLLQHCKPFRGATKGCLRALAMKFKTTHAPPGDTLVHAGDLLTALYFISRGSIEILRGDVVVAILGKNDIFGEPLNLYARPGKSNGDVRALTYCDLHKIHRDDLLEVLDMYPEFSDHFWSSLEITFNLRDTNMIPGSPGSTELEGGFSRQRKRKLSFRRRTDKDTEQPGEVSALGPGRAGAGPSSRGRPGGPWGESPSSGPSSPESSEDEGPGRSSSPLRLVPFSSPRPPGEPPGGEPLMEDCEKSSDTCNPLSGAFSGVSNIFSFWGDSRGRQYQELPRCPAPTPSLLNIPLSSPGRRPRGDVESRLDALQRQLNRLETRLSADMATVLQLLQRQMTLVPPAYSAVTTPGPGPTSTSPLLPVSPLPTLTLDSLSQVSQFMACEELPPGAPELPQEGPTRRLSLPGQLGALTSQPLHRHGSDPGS", "test": "primary screen, population patch clamp on CHO cells stably expressing hERG", "units": {"hERG current change (%, negative = inhibition) at 1uM": "%"}}
{"smiles": "CC(C)OCCCN1C=C2C(=O)C(C)(OC(=O)CCc3ccccc3)C(=O)C=C2C=C1c1ccc(C#N)cc1", "note": "(centres unmarked)", "hERG current change (%, negative = inhibition) at 1uM": -18.1}
{"smiles": "O=C(NCc1ccccc1Cl)c1ccc(CSc2nc3ccncc3[nH]2)cc1", "hERG current change (%, negative = inhibition) at 1uM": -0.245}
{"smiles": "c1cc2c(cnc3cscc32)s1", "hERG current change (%, negative = inhibition) at 1uM": 11.7}
{"smiles": "CN(C(=O)COC(=O)CCC(=O)c1ccccc1)c1c(N)n(Cc2ccccc2)c(=O)[nH]c1=O", "hERG current change (%, negative = inhibition) at 1uM": 9.1}
{"smiles": "Cc1cc(=O)oc(C)c1C(=O)NCCN(C)Cc1ccccc1", "hERG current change (%, negative = inhibition) at 1uM": 8.58}
{"smiles": "CN1CCc2nc(N)c(C#N)c(-c3ccccc3)c2C1", "hERG current change (%, negative = inhibition) at 1uM": -2.89}
{"smiles": "CN1C(=O)C(C)(C)c2cc(S(=O)(=O)N3CCC(C(=O)NCc4ccccc4Cl)CC3)ccc21", "hERG current change (%, negative = inhibition) at 1uM": 7.64}
{"smiles": "CCNC(=O)C1CCN(S(=O)(=O)c2ccc(F)cc2)CC1", "hERG current change (%, negative = inhibition) at 1uM": 7.71}
{"smiles": "CC(C)CCOCC(O)CCC(=O)NNC(=S)Nc1ccccc1", "note": "(centres unmarked)", "hERG current change (%, negative = inhibition) at 1uM": 9.68}
{"smiles": "CN1CCN(C(=S)NC(=O)c2ccc(-c3ccccc3)cc2)CC1", "hERG current change (%, negative = inhibition) at 1uM": 9.84}
{"smiles": "COc1cccc(N2CCN(Cc3ncc(-c4ccccc4)o3)CC2)c1", "hERG current change (%, negative = inhibition) at 1uM": 11.5}
{"smiles": "COc1ccccc1CCNC(=O)C(=O)NCC1OCCN1S(=O)(=O)c1ccc([N+](=O)[O-])cc1", "note": "(centres unmarked)", "hERG current change (%, negative = inhibition) at 1uM": -0.195}
{"smiles": "Cc1ccc(NC(=O)c2cccs2)cc1NC(=O)c1ccccc1Cl", "hERG current change (%, negative = inhibition) at 1uM": 13.8}
{"smiles": "Cc1c(C)c2ccc(O[C@@H]3O[C@H](CO)[C@H](O)[C@H](O)[C@H]3O)c(C)c2oc1=O", "hERG current change (%, negative = inhibition) at 1uM": 5.64}
{"smiles": "O=C(O)Cc1sc(Nc2ccccc2)nc1-c1ccc(Cl)cc1", "hERG current change (%, negative = inhibition) at 1uM": 6.57}
{"smiles": "CCOC(=O)Nc1cc2c(C)cc(=O)oc2cc1C", "hERG current change (%, negative = inhibition) at 1uM": 14.4}
{"smiles": "COC(=O)c1cccc(C(=O)Oc2cccc(Br)c2)n1", "hERG current change (%, negative = inhibition) at 1uM": 2.4}
{"smiles": "COc1ccccc1CNC(=O)CCC(=O)N1Cc2cccc(OC)c2Oc2ncccc21", "hERG current change (%, negative = inhibition) at 1uM": 10.1}
{"smiles": "Cc1ccccc1OCCC(=O)N(CC(=O)Nc1ccccc1C(F)(F)F)Cc1ccco1", "hERG current change (%, negative = inhibition) at 1uM": 2.85}
{"smiles": "CCc1nc(SCC(=O)NCc2ccco2)c2c3c(sc2n1)CCCC3", "hERG current change (%, negative = inhibition) at 1uM": 5.72}
{"smiles": "CCSc1sccc1C1C(C#N)=C(N)N(c2cccnc2)C2=C1C(=O)CCC2", "note": "(centres unmarked)", "hERG current change (%, negative = inhibition) at 1uM": -3.01}
{"smiles": "O=C(O)C[C@@H](CNC(=O)COc1ccc2ccc(=O)oc2c1)c1ccc(Cl)cc1", "hERG current change (%, negative = inhibition) at 1uM": 2.62}
{"smiles": "COc1cccc(CC2(CO)CCN(S(=O)(=O)N(C)C)CC2)c1", "hERG current change (%, negative = inhibition) at 1uM": 12.7}
{"smiles": "Cc1ccc(/C=N/Nc2ccccn2)s1", "hERG current change (%, negative = inhibition) at 1uM": 13.7}
{"smiles": "CC(C)N1CCC(N2CCN(C3CCCC3)CC2CCO)CC1", "note": "(centres unmarked)", "hERG current change (%, negative = inhibition) at 1uM": 4.59}
{"smiles": "CCOC(=O)c1cnc2c(C)cccc2c1NCc1ccco1", "hERG current change (%, negative = inhibition) at 1uM": -45.3}
{"smiles": "CCOc1ccc(N(CC(=O)NCCc2ccccc2)C(=O)CCC(=O)Nc2cc(C)ccn2)cc1", "hERG current change (%, negative = inhibition) at 1uM": 3.93}
{"smiles": "CC(=O)c1cccc(NC(=O)CSc2nnc(-c3ccc(S(=O)(=O)N4CCCC4)cc3)o2)c1", "hERG current change (%, negative = inhibition) at 1uM": -7.21}
{"smiles": "COc1cc(C(=O)Nc2nnc(C(F)(F)F)s2)c([N+](=O)[O-])cc1OC", "hERG current change (%, negative = inhibition) at 1uM": 15.5}
{"smiles": "CN(c1ccccc1)S(=O)(=O)c1ccc(NC(=O)c2ccco2)cc1", "hERG current change (%, negative = inhibition) at 1uM": 4.81}
{"smiles": "O=S(=O)(c1ccccc1)N1CCN(c2nc(-c3cccs3)nc3ccccc23)CC1", "hERG current change (%, negative = inhibition) at 1uM": 14.8}
{"smiles": "CC(C)On1c(SCC(=O)N(C)C)nc2ccccc2c1=O", "hERG current change (%, negative = inhibition) at 1uM": 8.8}
{"smiles": "OCCN(CC(O)Cn1ccc2ccccc21)CC(O)Cn1ccc2ccccc21", "note": "(centres unmarked)", "hERG current change (%, negative = inhibition) at 1uM": 4.62}
{"smiles": "Cn1c(-c2ccc(F)cc2)cnc1NCc1cc2c(cc1[N+](=O)[O-])OCO2.O=C(O)C(=O)O", "hERG current change (%, negative = inhibition) at 1uM": -21.6}
{"smiles": "CCOC(=O)C1CCN(C(=O)COC(=O)C2CCN(S(=O)(=O)c3ccc(C)c(C)c3)CC2)CC1", "hERG current change (%, negative = inhibition) at 1uM": 4.73}
{"smiles": "O=C(COc1ccc(S(=O)(=O)N2CCOCC2)cc1Cl)N1CCOCC1", "hERG current change (%, negative = inhibition) at 1uM": 14.5}
{"smiles": "Clc1ccc(-c2nnc3n2CCCC3)cc1Cl", "hERG current change (%, negative = inhibition) at 1uM": 16.4}
{"smiles": "CCOc1ccc(/C=N/NC(=O)C2CC2)cc1OC", "hERG current change (%, negative = inhibition) at 1uM": 19.1}
{"smiles": "COc1cccc(/C=C2\\SC(=S)N(CCCC(=O)N(CCO)c3ccccc3)C2=O)c1", "hERG current change (%, negative = inhibition) at 1uM": 11.3}
{"smiles": "CN1CCc2nc(NC(=O)COc3ccc4ccccc4c3)sc2C1", "hERG current change (%, negative = inhibition) at 1uM": 11.7}
{"smiles": "O=C(c1cccc(C(F)(F)F)c1)C1CCCN(C(=O)CCn2cnnn2)C1", "note": "(centres unmarked)", "hERG current change (%, negative = inhibition) at 1uM": 4.61}
{"smiles": "C/C(=C\\C(=O)c1ccc(Cl)cc1Cl)N(C)C", "hERG current change (%, negative = inhibition) at 1uM": 3.32}
{"smiles": "CC(C)/C=N/Nc1nc2c(c(=O)n(C)c(=O)n2C)n1C", "hERG current change (%, negative = inhibition) at 1uM": 7.34}
{"smiles": "COc1ccc(N(CC(=O)N2CCOCC2)S(C)(=O)=O)cc1Cl", "hERG current change (%, negative = inhibition) at 1uM": -1.45}
{"smiles": "CCN1C(=O)[C@@H]2[C@@H](c3ccc(-c4ccc(C(C)=O)cc4)cc3)N3CCCC[C@@]3(C(=O)OC)[C@@H]2C1=O.O=C(O)C(F)(F)F", "hERG current change (%, negative = inhibition) at 1uM": 10.1}
{"smiles": "COCCN(C(=O)COC(=O)c1ccccc1Oc1ccccc1)c1c(N)n(Cc2ccccc2)c(=O)[nH]c1=O", "hERG current change (%, negative = inhibition) at 1uM": 5.73}
{"smiles": "CC1SC(=Nc2ccccc2)N(S(=O)(=O)c2ccccc2)C1=O", "note": "(centres unmarked)", "hERG current change (%, negative = inhibition) at 1uM": 16.3}
{"smiles": "CC(NC(=O)C(c1ccccc1)c1ccccc1)c1ccc(S(N)(=O)=O)cc1", "note": "(centres unmarked)", "hERG current change (%, negative = inhibition) at 1uM": 13.8}
{"smiles": "CN(C)S(=O)(=O)c1ccc(Cl)c(NC(=O)COC(=O)/C=C/c2ccc(S(=O)(=O)N3CCOCC3)cc2)c1", "hERG current change (%, negative = inhibition) at 1uM": 16.2}
{"smiles": "O=C(C1CCN(S(=O)(=O)N2CCOCC2)CC1)N1CCC2(CC1)OCCO2", "hERG current change (%, negative = inhibition) at 1uM": 13.7}
{"smiles": "CCCCN(C(=O)c1ccc(-c2ccc(Cl)cc2)o1)c1c(N)n(CC(C)C)c(=O)[nH]c1=O", "hERG current change (%, negative = inhibition) at 1uM": 19}
{"smiles": "COc1ccc(/C=N/Nc2nc(N3CCCC3)nc(N3CCCC3)n2)cc1O", "hERG current change (%, negative = inhibition) at 1uM": 7.51}
{"smiles": "CCOc1cc(C(=O)NC2=NCCS2)cc(OCC)c1OCC", "hERG current change (%, negative = inhibition) at 1uM": 8.34}
